In all, about 150,000 compounds went through this assay and about 540 (0.36%) showed an effect of 50% or more. The list shows a part of the results.
test system: Plasmodium falciparum; assay: Primary screen in NF54 nanoGlo assay, in single point, at 2uM, 72h; a lower Z score goes with more inhibition; type: functional, Erythrocyte; settings: timepoint 72 hour

Structure (SMILES) | % Inhibition | Z score
Cc1ccc(-c2ccc(OS(=O)(=O)c3c(C)noc3C)cc2)cc1 | -10% | 1.06
CCN1CCn2cc(C(=O)NCc3cccs3)nc2C1=O | -10% | 1.32
O=C(CNCc1cc2cccnc2n1S(=O)(=O)c1ccccc1)NC1CC1 | -6% | 0.81
Cc1cc(NC(=O)C2CC(=O)OC2c2ccccc2)no1 (stereo not given) | 8% | -1.47
Cc1noc(C)c1Cc1c(C(=O)NCCn2c(C)cnc2C2CC2)noc1C | -3% | 0.48
CC1C(C(=O)O)CCN1C(=O)CCC1CCCCC1 (stereo not given) | 2% | -0.37
FC(F)(F)c1cnc(N2CCC(N3CCCOCC3)CC2)s1 | -3% | 0.38
CCc1cccc(NC(=O)CN2CCn3nc(C)nc3C2)c1 | -14% | 1.52
Cc1cc(C(=O)N2CC[C@H](c3ccccc3)C2(C)C)ncn1 | -13% | 1.7
Cc1nn(C)c(Cl)c1Cn1cnc2c1c(=O)n(C)c(=O)n2C | -14% | 2.05
Cc1ccc2c(c1)OCC(=O)N2CC(=O)N1CCC(Cc2ccccc2)CC1 | 27% | -3.01
CCC1CN(C(=O)Cn2ncc(=O)c3ccccc32)CC1N(C)C (stereo not given) | -12% | 1.52
COc1ccc(OCc2nc(C)c(CCO)c(=O)n2CC(=O)Nc2cccc(OC)c2)cc1 | -16% | 1.7
Cc1ccccc1OCc1nc2c3c(ncn2n1)Oc1cc(O)ccc1[C@@H]3c1ccccc1 | 38% | -4.3
O=S1(=O)NC(CN2CCOCC2)=Nc2ccccc21 | -6% | 1.12
Cc1cc(C)n(CC(=O)N2CCc3onc(-c4cccc5ccccc45)c3C2)n1 | -1% | 0.05
O=C(NCc1ccc(Cl)cc1)c1c(-c2ccccc2)c(-c2ccccc2)n[nH]c1=O | -6% | 0.76
Cc1ncsc1CN1CCN(S(=O)(=O)c2ccc(C(N)=O)o2)CC1 | -7% | 0.98
NC(=O)C1(NC(=O)c2ccc(Cl)c3occc23)CCC1 | 11% | -1.26
O=C(c1ccc2c(c1)CCO2)N1CCN(C(=O)[C@@H]2CCCO2)CC1 | -28% | 3.23
CC(=O)c1c(F)cncc1N1CCCCCCCC1 | -7% | 0.81
COCCn1cnnc1CCNC(=O)C(C)(C)C | 6% | -1.05
CCn1cc(CN(C)C(=O)c2oc3cc(OC)ccc3c2C)cn1 | -7% | 0.98
COc1ccccc1C1=NS(=O)(=O)N(C)C(C(=O)N2CCN(C)CC2)=C1 | -16% | 3.09
Cc1ncsc1CN1CCN(C(=O)OCC(C)C)CC1 | 29% | -3.92
O=C(c1ccno1)N1CCc2sc(Cl)cc2C1 | -9% | 1.07
CC(=O)c1c(F)cccc1N(C)CC(C)(C)CCO | -9% | 1.08
COc1ccc(C(NCC(O)c2cnn(C)c2)C(C)C)c(F)c1 (stereo not given) | -4% | 0.82

Structure (SMILES) | % Inhibition | Z score
CN(C)c1ccc(NC(=O)C2CCC2)cc1CN(Cc1ccco1)C(=O)c1ccccc1Cl | -6% | 0.86
CN(c1ccc(S(=O)(=O)N2CCOCC2)cn1)C1CCCCC1 | -1% | 0.08
COCCN1CC2(CCC1=O)CCN(C(=O)c1nn(C)cc1Cl)CC2 | 8% | -1.12
CN(C[C@H]1CCCCO1)C(=O)c1cc(O)c2ccccc2c1 | -2% | 0.33
CN(C)c1nccc(N(C)CCOCC2CC2)n1 | -5% | 0.42
CN(C)C(=O)c1ccc(C(=O)Nc2cccc(-c3ccc4ccccc4c3)n2)cc1 | -6% | 0.78
COCC(=O)Nc1ccc(N2CCCN(C(=O)NC(C)(C)C)CC2)c(C(=O)N(C)Cc2ccccc2)c1 | -1% | 0.11
COCCN(C)c1ncc(S(=O)(=O)N2CCCC2)cc1Cl | 1% | -0.17
O=C(N[C@H]1CCOC2(CCOCC2)C1)c1c[nH]c(=O)c(Cl)c1 | 3% | -0.4
CN1C[C@@H](CN2CCN(c3ccccc3)CC2)CC1=O | -4% | 0.56
Cc1cnc(Cn2ccnc2-c2cc3ccccc3o2)cn1 | -9% | 1.78
CC[C@H](NC(=O)Cc1c(C)n[nH]c1C)c1nc(C)c(C)s1 | -20% | 1.79
CC(C)C1Nc2c(C(=O)O)cccc2C(Nc2ccccc2C(=O)O)C1(C)C (stereo not given) | 3% | -0.33
CCCCNC(=O)c1ccc(-c2cc(N)nc3[nH]ccc23)o1 | 10% | -1.8
Cc1cc(CN(C)CC2CC(NC(=O)OC(C)(C)C)C2)no1 (stereo not given) | -8% | 1.27
CC(=O)C1C(c2cn(-c3ccccc3)nc2-c2ccccc2)NC(=O)NC1(O)C(F)(F)F (stereo not given) | -25% | 4.33
CN=C(NCc1nc(C)c(C)s1)NC[C@H]1COc2ccccc2O1 | 5% | -0.99
CCOc1cc(N2CCOCC2)c(OCC)cc1NC(=O)C(=O)c1ccc(C)cc1 | 16% | -1.89
C[C@H](Oc1ccc(NC(=O)C2(c3cccnc3)CCCC2)cc1F)C(=O)O | -4% | 0.44
CC[C@H](C)N(Cc1ccsc1)C(=O)c1cnn(CC)c1 | -15% | 1.47
O=C(c1nccn2ccnc12)N(Cc1cccs1)Cc1cccs1 | -8% | 1.23
CC(C)OC(=O)N[C@H]1CCCCN(S(=O)(=O)C2CC2)C1 | -12% | 1.62
O=c1scc(-c2cccc(F)c2)n1Cc1nnsc1Cl | -15% | 2.92
C[C@@H](C(=O)Nc1ccccc1C(F)(F)F)S(C)(=O)=O | -12% | 1.55
CCCN1C(=O)c2ccccc2N2C(=O)CC[C@@]12C(=O)Nc1nc(C)cs1 | 2% | -0.31
COc1ccc(CN2C(=O)O[C@H]3CN(C4CCCC4)C[C@H]32)cc1OC | -1% | 0.23
COc1ccc(-c2noc(CCC(=O)N[C@H]3CCS(=O)(=O)C3)n2)cc1OC | -3% | 0.42

— ChEMBL document CHEMBL4888484, “Replenishing the malaria drug discovery pipeline: Screening and hit evaluation of the MMV Hit Generation Library 1 (HGL1) against asexual blood stage Plasmodium falciparum ,using a nano luciferase reporter read-out” (2022)
